# Test results taken from the supplement of paper PMC11417369.
# The list shows a part of the results.
# Test system: PfHDP1 homeodomain (GST-tagged)
# Experiment: gcPBM binding intensity (ln(normalized median fluorescence intensity)); higher = stronger DNA binding
# Summary of the method: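 Binding of GST-tagged P. falciparum DNA-binding domains, expressed in E. coli and used at about 25 μg on average, was carried out for 1 h in 1× PBS containing 1% milk, 0.2 mg/ml BSA, 0.5% salmon testes DNA and 0.03% Triton X-100. The target was an Agilent 4 × 180k array of primer-extended double-stranded 36-bp intergenic genomic probes plus negative controls, read with Alexa488 anti-GST antibody at 488 nm. Binding intensity is the highest Masliner-normalised natural-log median intensity across replicate spots of either probe orientation.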
row,Sequence,gcPBM binding intensity (ln)
1,AAAAAAAAAAAAAATATATATATATATATATATATA [CACACA_negctrl_site540],9.43
2,TCTTGATTAACTTAAAAAAAAAAAAAAAAAAAAAAA [CACACA_negctrl_site458],6.02
3,TTGGCTATAGCCAATTGTACTTTTTCTCTTTGGCTT [XGTACX_site1119],6.2
4,GACATATATACCAAACGTACATATGTGCAAGCATAA [XGTACX_site3089],10.1
5,CATATAATAAATAATTGTACTTGATATAATATTATG [XGTACX_site3562],6.1
6,TATATTTGTGCGTGTACACATTTGAAAAAATATATA [CACACA_site5079],7.23
7,TTTTTTTTTTTTTTTGCACACTTAAATTTGGTGGCT [CACACA_site5319],9.03
8,GCTTAATACAGAATAACACACAAAATAAATAAATAA [CACACA_site4041],6.54
9,TATATAATTATTTTTTGTACTCATAATAATATGAAA [XGTACX_site289],6.86
10,AATAATAATAAAAAGGTGCTGAAATATTTTTATTAT [GTGCAC_site9763],6.6
11,ATAAATTATAATAACTGTACAAAAATAATATATTCA [XGTACX_site1856],6.48
12,GTTAGTTTTAGTTCATGTACATAATAGAAAATATAT [XGTACX_site7125],6.63
13,TATATAATACGAATTTGTACATATTAAATAAATTAT [XGTACX_site93],6.43
14,ATAAAATATAGGTATGCACACACATATACTTCTGTG [CACACA_site8398],8.84
15,GATATATGTATAATAACGCACACTACAAAAATAAAA [CACACA_site2100],7.35
16,AATAAAGAAGAAGAAAGTACACATTTCACAAAGGGG [XGTACX_site1308],6.98
17,AAGGTATGATTAATCACACACATAAATATAAATACA [CACACA_site5464],6.69
18,AAGCTTCATTAATATACACACATATATGTGTATATT [CACACA_site7693],6.88
19,TAATATATTATAAACACATGCACATTAATAATAACT [TGCATGCA_site708],8.38
20,ATAGACATTTTACTTTGTACATATAAACATATATAT [XGTACX_site2733],6.75
21,TATATATATATATATGTGCACATTTTATTAAAATGT,10.2
22,ACATAAATATATTTTTCACACATCATTAGTTATGAA [CACACA_site4724],6.68
23,ATATGAAACATGAAGGTGCATAATGTGTATATTTAT,10.1

row,Sequence,gcPBM binding intensity (ln)
1,TATTTTTTAAAAAAACGTACAAACATAATAAAAATA [XGTACX_site1857],7.11
2,TTTTTTATGAGGTGGTGTACTTTTTTTTTTTTCTTT [XGTACX_site8550],6.18
3,TGGTAATACCCATACACACACACATACCCATATATA [CACACA_site5509],6.9
4,TTCAAATAAATAGTAGTGCATATTTATTAATGTAAA,8.68
5,ATTAAAGAGAGACATCAACACACATACGTATGTATA [CACACA_site8393],6.43
6,CAAGAAACAGTGATACGTACACATATATATATATAT [XGTACX_site3229],9.24
7,AATGAATGTACATACGCATGTACTTGACTAAATTAT [TGCATGCA_site436],6.4
8,ATTTTCAAATTATCAGATGAATCTTTTTAAGATCTT [XGTACX_negctrl_site598],5.71
9,AAACTATACCAAAACACACATACAAAATATAAAAAA [CACACA_site2707],6.84
10,TTTTTTTTTTTTTTTTTACACACTGCATACAAGAAA [CACACA_site3026],6.53
11,GTCTGCATATGGATACGTACACATATATATTAATGT [XGTACX_site2260],6.84
12,GGGAAAAAATGAGGTCGTACATTTTTCATCACAAAT [XGTACX_site8920],6.42
13,CTCATATATAACACATGTACACAGATTTTGCAAATG [XGTACX_site6879],8.94
14,CAACAACATTTTTCATGTACATATATTTTATAATAT [XGTACX_site519],6.47
15,AAAAAAAAAAAAAACATACACACAAGAACAAAATAT [CACACA_site3003],6.9
16,TAAAAAATAAAATACACACACATATTTATATTTATA [CACACA_site6737],6.45
17,ATGTTATATTTTTTTATACACACTGGAATATATAAA [CACACA_site215],6.71
18,ATTTATAATGAGTATACACACATATATAGATTTGCT [CACACA_site4517],6.65
19,ATTATTATTGTCAAATGTACAAGCTAATAATTTTTA [XGTACX_site7167],6.13
20,TATATATATATATATTGTACTTTATTTTATATATTC [XGTACX_site5697],9.11
21,ATATATATATATACATGTACATATATACATTATATT [XGTACX_site936],9.05
22,AAACATTTAAATGGAAACACAGAAAAATGAAAAATG [CACACA_negctrl_site457],7.11
23,TTTTTTTTTTGTAATACACACCACTATATGTTATTT [CACACA_site5087],6.86

row,Sequence,gcPBM binding intensity (ln)
1,ATATGTTACTTTACATAAAGAAGAAGAAGAAGAAAA [CACACA_negctrl_site985],6.27
2,TATTATTCAAATAAAAGAAAAATATATATATTATAT [GTGCAC_negctrl_site273],6.47
3,TTTCAAAAAGGAAGAAAAAAAAAAAAAAAAAATATA [XGTACX_negctrl_site514],5.88
4,ATATATATATATATATGTACATATTTTTTATTTTAT [XGTACX_site5761],9.37
5,AAAAAAAAAAAAAAAACACACATATATGTATATATA [CACACA_site3276],6.64
6,CAATTACGCAGGAATGCACACAATAATAAAAAAAAT [CACACA_site3513],8.88
7,TTTTTTCTTTTCAAGGTGCTTTATAAGAAAAAGGGA [GTGCAC_site9858],6.13
8,AAAAAAAAAAAAAACACACACACACCCAAATACATA [CACACA_site708],6.82
9,AGTATTATATTTTCTTGTACACATGTAAAATACCTC [XGTACX_site1359],6.79
10,TATATTAAAACAAGCACACAATCGCATAATATCCTT [CACACA_site3210],6.45
11,TATTTTATCATTTGCACACGCACACCCACATAAAAA [CACACA_site354],10.5
12,TTCTTATTTAATGTATCACACACGAGAATAAAAAAT [CACACA_site8992],6.82
13,CATATGGCAATAATTACATGCAAAAAAAAAAAAAAA [TGCATGCA_site578],6.4
14,AATGTAAAAGTAAACACACACATATATTTATACATA [CACACA_site7218],6.73
15,AGCCATATCTTTTTTGCACACACTACAATAAAACAA [CACACA_site1650],10.1
16,ACATTTAATGTTATATGTACATAATATTATAAGTAT [XGTACX_site1393],7.12
17,GTAAATCGACACATACGTACATACATTTATATATAT [XGTACX_site3143],6.8
18,AAAAAAAAGAAAAACACACACATATATATATATAAT [CACACA_site4707],6.64
19,ACAGACGTTCAAAGGTGTACGCAAAATGAATAATAT [XGTACX_site7565],6.95
20,TATATATATGGTTTAACACACGAGATAAAAGTATAT [CACACA_site2867],6.87
21,ATTGTGCTCATCAGCACACACAACATCATGTAATAA [CACACA_site1863],8.41
22,TTATATTTATAAAATTGTATACCCCTTCTAACTTTC [CACACA_negctrl_site250],6.7
23,TTTTAAATTTAATTTACACACTTTTCATAGCATTGA [CACACA_site3794],6.49

row,Sequence,gcPBM binding intensity (ln)
1,TTCTATTCACATTTTACACACGTCCATCGCATTTTA [CACACA_site3453],7.31
2,TATATGGTATGTATTACACACATATCACATATAGAT [CACACA_site7426],6.39
3,TTAATTAAAACGAATACACACATAAATATGTAAAAG [CACACA_site6707],6.37
4,TATATATATATATAATGTACTTATATTTTTTTGAGG [XGTACX_site2638],9.17
5,AAAAAAAAAAAAAAAAGTACATATATATATTTATAT [XGTACX_site5893],6.41
6,CATAAATCAGCCATAACACACATACATATATACATA [CACACA_site8025],6.55
7,ACACATATGTCTTCATGTACATAATATATAAATCTT [XGTACX_site3438],6.97
8,TCATTGAAAATTGTTGCACACATAATAATTAAATAT [CACACA_site8554],9.46
9,TATCTTTTTATTTTTTATTTTTTTTTTATAATTTAC [XGTACX_negctrl_site414],6.45
10,TGTTAAAAAATGGATGCACACATTAAATAAAAAGTA [CACACA_site1660],8.66
11,TATATATATACAGTTGCATGTTGTGTTTAAAATTTT [TGCATGCA_site816],7.86
12,TAAAGGTAGATATATTGTACATACACACCTATATAA [XGTACX_site6865],6.36
13,TCTTGTTTATCAACAGCACACACAACAACAACAACA [CACACA_site8046],6.8
14,TATAAATACGAACACACACACCTTATAATTACTACT [CACACA_site7827],6.75
15,TTATATTTAGTATATGCACACTTTATGTTTGTTATT [CACACA_site5163],9.53
16,AAAAACCATTGGCACACACACATAATATATAATATA [CACACA_site4903],6.83
17,AAGAAAGGTTAAACATGTACATAAATATTTTACATA [XGTACX_site5024],6.28
18,ACATTATATTTGGACTGTACTAATATATTGTTATAT [XGTACX_site5573],6.23
19,ATATATATATATATATGTACATATTGTATCTTATAC [XGTACX_site5466],9.29
20,TATACATATATATATTGTACATATTATATATATATA [XGTACX_site3286],8.6
